About 65 (0.1%) of roughly 45,000 compounds were called active. The call rests on the fitted dose curve; in most records, active means well fitted activation curve with a large enough effect; inconclusive means small, poorly fitted or top-dose-only effect; inactive means no such curve, though single readings can be large or run the other way. The list shows a part of the results.

Chain of UniProt P54803 (P54803 whole entry, looked up): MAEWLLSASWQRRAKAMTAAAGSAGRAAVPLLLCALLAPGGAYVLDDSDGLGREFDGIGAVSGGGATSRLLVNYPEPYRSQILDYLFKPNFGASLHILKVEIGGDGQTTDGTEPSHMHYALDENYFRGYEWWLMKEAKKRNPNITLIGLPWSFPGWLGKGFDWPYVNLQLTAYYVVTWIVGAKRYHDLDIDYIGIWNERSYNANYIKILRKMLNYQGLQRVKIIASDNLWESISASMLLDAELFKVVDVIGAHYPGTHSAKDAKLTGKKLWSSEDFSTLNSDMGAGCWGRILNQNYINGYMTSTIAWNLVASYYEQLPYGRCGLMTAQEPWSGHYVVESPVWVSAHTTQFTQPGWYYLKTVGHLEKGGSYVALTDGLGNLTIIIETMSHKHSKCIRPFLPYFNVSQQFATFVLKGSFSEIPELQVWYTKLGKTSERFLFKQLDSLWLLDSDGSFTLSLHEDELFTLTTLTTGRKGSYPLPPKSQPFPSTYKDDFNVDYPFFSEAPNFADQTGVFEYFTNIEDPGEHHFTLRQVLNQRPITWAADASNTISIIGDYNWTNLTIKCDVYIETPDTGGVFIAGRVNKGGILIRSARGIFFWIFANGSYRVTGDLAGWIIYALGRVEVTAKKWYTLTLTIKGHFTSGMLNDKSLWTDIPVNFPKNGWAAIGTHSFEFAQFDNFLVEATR

The experiment deals with Galactocerebrosidase (Homo sapiens) (UniProt P54803). Nature of the experiment: A Novel Cell-Based Assay to Identify Small Molecules for B -Galactocerebrosidase. Further: 0% is about no effect; nearly all actives have a fitted effect of over 65% in size. The note with it: 145M-Twi-hGALC-G270D cells (Twitcher mouse brain line with human GALC G270D), HMU-beta-Gal fluorescence, 48 h; series mostly up to 57.5 µM; activation: at the top concentration. An outline of the steps:
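Mutant human GALC (G270D), stably expressed in a Twitcher mouse brain cell line lacking endogenous GALC, is measured in live-treated cells via 6-hexadecanoylamino-4-methylumbelliferyl-β-galactoside hydrolysis (0.1 mM final, pH 5.2) with fluorescent detection.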
Consider `COCCN(Cc1ccco1)C(=O)c1cc2c(=O)[nH]c3ccc(C)cc3c2s1`, for which the “activation” value is inactive: -14%.
`CCOc1ccc2c(c1)c(=O)c(S(=O)(=O)c1ccc(F)cc1)cn2CC(=O)Nc1ccccc1C`: the “activation” value was inactive: -12.6%.
To `CCCS(=O)(=O)Nc1cccc(-c2cn3ccc(C)cc3n2)c1` belongs inactive: -28.6%; to `NC1=NC(c2cccc(Cl)c2)n2c(nc3ccccc32)N1` (stereo unspecified), inactive: -9.51%.
As for `CCOC(=O)c1cnn(-c2ccc(C(=O)Nc3ccc(C(C)=O)cc3)cc2)c1N`, the figure is inactive: -15.6%; as for `COc1ccc(C2C=C(c3ccc(Cl)cc3)Nc3nc(-c4ccc(Cl)cc4)nn32)cc1` (stereo unspecified), inactive: -8.37%; as for `O=C(CSc1n[nH]c(-c2ccc(F)cc2)n1)NCc1ccccc1Cl`, inactive: 0.32%.
To `CCOc1c(Br)cc(C2CC(=O)Nc3cc4c(cc32)OCO4)cc1OC` (stereo unspecified) belongs inactive: -25%; to `COC(=O)c1ccc(NC(=O)CCCC(=O)OCC(=O)c2ccc(Cl)cc2)cc1`, inactive: -16.7%; to `COc1ccc(C)cc1NS(=O)(=O)c1c(C(=O)N2CCC(C)CC2)c(C)n(C)c1C`, inactive: -7.73%.
With `Cc1ccc(NC(=O)c2oc3ccc4c(c3c2C)C(=O)CC(C)(C)O4)c(C)c1`, the “activation” value was inactive: 7.16%.
To `Cc1ccc(-c2noc(-c3ccc(N4CCN(C)CC4)c([N+](=O)[O-])c3)n2)cc1` belongs inactive: -7.6%; to `O=C(COc1ccccc1)NCC(c1ccc(Cl)cc1)N1CCOCC1` (stereo unspecified), inactive: -7.53%; to `COc1cccc(C(=O)N2c3ncnn3C3(CCCCC3)[C@@H]3CCCC[C@@H]32)c1`, inactive: -12.5%.
To `COc1ccc(N2CCN(S(=O)(=O)c3ccc(-c4ccno4)cc3OC)CC2)cc1` belongs inactive: 8.08%.
As for `CCCCc1ccc(NC(=O)c2ccc3c(c2)CCN3S(=O)(=O)CC)cc1`, the figure is inactive: -3.84%.
With `Cc1ccccc1OCC(=O)NCC(c1ccc(Cl)cc1)N1CCCCC1` (stereo unspecified), the “activation” value was inactive: -6.54%.
As for `CCOc1ccc(/C=C/c2nc(C#N)c(NC(C)c3ccccc3)o2)cc1` (stereo unspecified), the “activation” value was inactive: 0.227%.
To `COc1ccc(C)cc1NC(=O)Nc1cccc(OCc2cc(=O)n3ccc(C)cc3n2)c1` belongs inactive: -9.34%; to `Cn1ncc2c(N3CCN(c4ccccc4F)CC3)ncnc21`, inactive: -9.99%; to `CCOC(=O)c1ccc(-n2c(CCC(=O)O)ccc2-c2ccccc2)cc1`, inactive: -9.56%.
With `COc1ccc(C(=O)CC2(O)C(=O)N(Cc3cccc(C(F)(F)F)c3)c3ccccc32)cc1` (stereo unspecified), the “activation” value was inactive: -5.7%.
As for `CC(=O)N1CCc2cc(Br)cc(S(=O)(=O)N3CCC(C(=O)Nc4ccc(C(C)C)cc4)CC3)c21`, the figure is inactive: -12.1%; as for `CN(Cc1ccccc1)S(=O)(=O)c1ccc(NC(=O)c2cc(=O)c3ccccc3o2)cc1`, inactive: -23.3%.
For the molecule `CCc1cccc(C)c1NC(=O)CN1C(=O)C2(SCC(=O)N2c2cccc(F)c2)c2ccccc21` (stereo unspecified), the “activation” value was inactive: -9.14%.
Turning to `O=C(Cn1ncc2c([nH]c3ccccc32)c1=O)NCCCN1CCN(c2ccccc2)CC1`, the “activation” value was inactive: -14.9%.
As to `Cc1cccc(N2CCN(S(=O)(=O)c3cc(C(=O)Nc4ccc(Oc5ccccc5)cc4)ccc3F)CC2)c1C`, the “activation” value was inactive: -8.62%.
To `O=c1oc2ccccc2c(N2CCN(c3ccc(F)cc3)CC2)c1CN1CCCC1` belongs inactive: -15.3%; to `COc1ccc(C(=O)COC(=O)c2cc(-c3cccs3)nc3ccccc23)cc1`, inactive: -19.5%; to `COc1ccc(OC)c(Nc2sc(C(=O)c3ccccc3)c(N)c2S(=O)(=O)c2ccccc2)c1`, inactive: -14.4%.
Regarding `Cc1ccccc1NC(=O)Cn1c(=O)n(CCc2ccccc2)c(=O)c2ccccc21`, the “activation” value is inactive: -9.4%.
As for `COc1ccc(Br)cc1[C@@H]1Nc2ccc(C(=O)O)cc2[C@@H]2C=CC[C@@H]21`, the figure is inactive: -16.4%; as for `CCOc1ccc(CCNC(=O)CSc2nnnn2-c2ccccc2)cc1OCC`, inactive: -0.195%.
As for `CCOC(=O)c1cccc(NC(=O)c2oc3c(c2C)-c2nn(CC)cc2CC3)c1`, the figure is inactive: 5.45%.
To `Cc1c(Cl)cccc1-n1ncc(C(=O)NC2CCCCC2)c1C1CCN(C(=O)OC(C)(C)C)CC1` belongs inactive: -5.56%; to `Cc1ccc(CNC(=O)Cc2csc3ccccc23)cc1`, inactive: -9.49%; to `COc1ccc(CNC(=O)C(C)n2nc(C)c3c(C)n(-c4ccccc4)nc3c2=O)c(OC)c1` (stereo unspecified), inactive: -16.6%.
As for `CCc1nn2c(=O)cc(COC(=O)c3ccccc3NC(=O)COc3ccc(C)c(C)c3)nc2s1`, the “activation” value is inactive: -11.7%.
As for `CCCCn1cc(S(=O)(=O)c2cc(C)ccc2C)c(=O)c2cc(F)c(F)cc21`, the figure is inactive: 19.9%; as for `CC(C(=O)Nc1ccc(OC(F)(F)F)cc1)N1Cc2ccccc2C1=O` (stereo unspecified), inactive: -0.338%.
To `Cc1oc(-c2ccccc2F)nc1CN1CCC(C(=O)NCCc2ccccc2)CC1` belongs inactive: -27%; to `Cc1ccc(OCC(=O)NCC(c2ccc(Cl)cc2)N2CCOCC2)cc1C` (stereo unspecified), inactive: -10.2%.
As for `Cc1ccn2c(=O)cc(COc3ccc(NC(=O)COc4ccc(C)c(C)c4)cc3)nc2c1`, the figure is inactive: 0.629%; as for `CCOc1cc(C2c3c(oc4ccccc4c3=O)C(=O)N2Cc2ccc(OC)cc2)ccc1O` (stereo unspecified), inactive: -20.6%; as for `O=c1c2ccccc2n(Cc2c(F)cccc2Cl)c(=O)n1CCc1ccccc1`, inactive: -3.18%.
Regarding `COc1ccc(C)cc1NC(=O)c1cnc2ccc(C)cn2c1=O`, the “activation” value is inactive: -20.6%.
To `Cc1cc2c(cc3c(SCc4ccc(Cl)cc4)nncn32)o1` belongs inactive: -10.4%; to `COCCNC(=O)CCCn1c(SCC(=O)c2ccc(Br)cc2)nc2c(sc3ccccc32)c1=O`, inactive: -13.3%.
As for `O=C(O)c1ccc2nc(-c3cc4cc(Cl)ccc4oc3=O)[nH]c2c1`, the figure is inactive: -8.44%.
To `COc1ccc(-n2cnc3cc(C(=O)NC4CCCCCC4)ccc32)cc1` belongs inactive: -10.4%; to `CCOC(=O)c1c(C)[nH]c(C)c1S(=O)(=O)N(C)CC(=O)NCc1ccc(Cl)cc1`, inactive: -7.54%.
With `Cc1ccc(C(=O)c2oc3ccccc3c2NC(=O)Cc2coc3ccc(C)cc23)cc1`, the “activation” value was inactive: -14.1%.
`Cc1ccc(-c2nc3c4ccccc4n(CC(=O)NCc4ccc(F)cc4)c(=O)n3n2)cc1`: the “activation” value was inactive: -13.3%.
To `Cc1cccc(Nc2c(-c3ccsc3)nc3nc(C)cc(C)n23)c1` belongs inactive: -13.2%.
To `O=C(CCCCn1c(=O)c2ccccc2n(Cc2cccc(F)c2)c1=O)NCc1ccc2c(c1)OCO2` belongs inactive: -7.61%; to `CCOc1ccc(CCNC(=O)CCCc2nnc3n(CC)c(=O)c4sccc4n23)cc1`, inactive: -0.989%.
As for `CCSc1ncc(Cl)c(C(=O)Nc2c(C(=O)Nc3ccccc3)oc3ccccc23)n1`, the figure is inactive: -3.95%; as for `O=C(CSc1nccn1-c1cccc(Cl)c1)Nc1cccc2ccccc12`, inactive: -2.96%; as for `CCc1nn(CC(=O)NCCCN(CC)CC)c(=O)c2cc3occc3n12`, inactive: -4.12%.
With `COc1cccc(CNC(=O)CN2C(=O)N(c3ccc(C)cc3C)S(=O)(=O)c3ccccc32)c1OC`, the “activation” value was inactive: 0.48%.
Turning to `CCc1nc(-c2cc(S(=O)(=O)N3CCN(c4ccccc4)CC3)ccc2OC)no1`, the “activation” value is inactive: -5.39%.
To `Cn1c(SCC(=O)Nc2nc3ccccc3s2)ncc(C(=O)Nc2ccccc2)c1=O` belongs inactive: -14.4%.
For `COc1ccc(C)cc1-n1cnc2cc(C(=O)NC3CCCCCC3)ccc21`, the “activation” value was inactive: -17.6%.
To `O=C1COc2cc(S(=O)(=O)CCC(=O)NC3CCCCC3)c(Cl)cc2N1` belongs inactive: -3.36%; to `Cc1ccc2onc(CNC(=O)NCc3ccc(Cl)cc3)c2c1`, inactive: -11.5%.
To `COc1ccc(-c2nc3cc(C)ccn3c2NC(=O)c2cccc(F)c2)cc1` belongs inactive: -11.7%; to `Cn1c(=O)c2c(-c3ccc(Br)cc3)n(Cc3ccc(F)cc3)cc2n(C)c1=O`, inactive: -12.1%.
As for `O=C(O)c1c(-c2ccccc2)oc2ccc(OCc3c(F)cccc3Cl)cc12`, the figure is inactive: -18.2%; as for `O=C(NCCn1cc(SCc2ccc(Br)cc2)c2ccccc21)c1cccs1`, inactive: -13.9%; as for `COc1ccc(CCNC(=O)C2CCN(Cc3nc(-c4ccc(OC)c(OC)c4)oc3C)CC2)cc1OC`, inactive: -8.46%.
As to `Cc1ccc(/C=C(\C#N)C(=O)Nc2cccc(Cl)c2)o1`, the “activation” value is inactive: -13.3%.
To `CCN(CC)C(=O)Cn1c(=O)n(CC2CCC(C(=O)NC)CC2)c(=O)c2sccc21` (stereo unspecified) belongs inactive: -7.5%; to `CCC1Oc2ccccc2N(CC(=O)NCc2cc(OC)ccc2OC)C1=O` (stereo unspecified), inactive: -14.1%.
As for `CCCC(=O)N1CCc2cc(OC)c(OC)cc2C1COc1ccc(C(=O)OC)cc1` (stereo unspecified), the figure is inactive: -5.78%; as for `CCOc1ccccc1-c1nc(Cn2c(=O)cc(C)c3c(C)nn(-c4ccccc4)c32)c(C)o1`, inactive: -0.427%; as for `O=C(CSc1nc(-c2ccccc2F)nc2cc(=O)[nH]n12)Nc1cccc(C(F)(F)F)c1`, inactive: -21.6%.
Turning to `Cc1ccc(OCC(=O)Nc2ccc(S(=O)(=O)Nc3cc(C)on3)cc2)c(Br)c1`, the “activation” value was inactive: -16.9%.
To `Cc1cc(C)cc(NC(=O)C2CCCN2S(=O)(=O)c2ccc3nc(-c4ccccc4)[nH]c3c2)c1` (stereo unspecified) belongs inactive: -3.65%; to `COC(=O)c1sc(-c2ccccc2)cc1NC(=O)Nc1ccc(F)cc1`, inactive: -17.4%; to `COc1ccc(C(CC(=O)NCc2ccc(Cl)cc2)N2Cc3ccccc3C2=O)cc1OC` (stereo unspecified), inactive: -27.9%.
To `Cc1ccc(CNC(=O)c2ccc3c(c2)N(Cc2ccccc2Cl)C(=O)CS3)cc1` belongs inactive: -5.17%; to `CCOc1ccc2nc(N(Cc3cccnc3)C(=O)C3CCCCC3)sc2c1`, inactive: -7.35%.
As to `Cc1ccc(-c2nnc(Nc3ccccc3)c3ccccc23)cc1S(=O)(=O)N1CCOCC1`, the “activation” value was inactive: -22.3%.
As for `Cc1ccc(C2CCN(C(=O)Nc3ccc(Cl)c(Cl)c3)C2)cc1` (stereo unspecified), the figure is inactive: 3.85%; as for `Cc1cccc(N2CCN(C(=O)c3oc(=O)c4ccccc4c3-c3ccccc3)CC2C)c1` (stereo unspecified), inactive: -8.2%; as for `Cc1oc2ncn(C)c(=O)c2c1C(=O)Nc1ccc(F)cc1`, inactive: -13.8%.
To `Cc1cc(OCC(=O)NC(Cc2c[nH]c3ccccc23)C(=O)O)ccc1Cl` (stereo unspecified) belongs inactive: 4.42%.
To `Cc1cc(N2CCN(c3ccc(F)cc3)CC2)n2nc(-c3ccc(Cl)cc3)nc2n1` belongs inactive: -11.1%.
`CCc1nn(CC(=O)NCCc2ccc(Cl)cc2)c(=O)c2cc3ccccc3n12`: the “activation” value was inactive: -9.64%.
As for `CCOC(=O)c1[nH]c(C)c(CCC(=O)Nc2ccccc2C(=O)OC)c1C`, the figure is inactive: -6.12%; as for `O=C1CC2(CCCC2)CC(=O)N1CCNCC1COc2ccccc2O1` (stereo unspecified), inactive: -5.75%; as for `CC(C)OCCCNC(=O)c1ccc(Cn2c(=O)c3cccn3c3cccnc32)cc1`, inactive: 1.29%.
In the case of `Cc1cccc(CSc2nc(=O)c3c(n2C)NC(=O)CC3c2cc(F)cc(F)c2)c1` (stereo unspecified), the “activation” value was inactive: -15.3%.
To `COc1cccc(CNC(=O)c2cccc(-n3c(C)nc4cccnc43)c2C)c1` belongs inactive: -10.9%; to `COc1ccc(Cn2c(CCC(=O)Nc3ccc(C)cc3C)nc3cccnc32)cc1`, inactive: -15.7%.
As for `CCOC(=O)[C@H](CCc1ccccc1)N[C@@H](C)C(=O)N1CCC[C@H]1C(=O)O`, the figure is inactive: -7.75%.

The values are drawn from PubChem BioAssay AID1159614 (National Center for Advancing Translational Sciences (NCATS), 2016).
